# Test results reported in PubChem BioAssay AID1508642 (National Center for Advancing Translational Sciences (NCATS), 2021).
# Hit rate of the full screen: of about 43,000 compounds, about 200 (0.47%) were called active. Another 12% or so got no clear call; they are omitted. Calls follow the shape of the dose curve; as a rule, active = well fitted cell-killing curve with a large enough effect; inconclusive = small, poorly fitted or top-dose-only effect, or effect the other way; inactive = flat fitted curve, though single readings scatter. The list shows a part of the results.
# Test: Cell viability qHTS assay in S16 Pmp22-F2sN cells; also: nearly all actives have a fitted effect of over 65% in size
# Details: S16 Pmp22-F2sN Schwann cells (luciferase reporters placed in the Pmp22 gene) viability, CellTiter-Glo, 24 h; series mostly up to 57.5 µM; activity change, negative = cytotoxicity: at the top concentration
# Method in brief: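 Luminescence from CellTiter-Glo, read by CCD camera after a 15 min room-temperature incubation, served as the viability signal. Reporter Schwann cells (S16 Pmp22-F2sN) had been treated with pin-transferred compounds for 24 h at 37C.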
# % is scaled to controls: 0 for no effect and ±100 for the full control effect.
row,SMILES,"activity change, negative = cytotoxicity"
1,CCOC(=O)c1c(-c2ccc(C)cc2)csc1NC(=O)c1cc(=O)c2cc(C)cc(C)c2o1,inactive: 19%
2,COc1cc(NC(=O)c2c3c(nc4ccccc24)C(=O)N(C2CCCCC2)C3)cc(OC)c1,inactive: 3.65%
3,COc1ccc(-n2c(SCc3ccccc3F)nc3c([nH]c4ccccc43)c2=O)cc1OC,inactive: 10.8%
4,O=C(CSc1c2c(nc3cc(Cl)ccc13)CCCC2)N1CCN(c2ccccc2)CC1,inactive: 14.4%
5,COc1ccc(-c2cc(C)no2)cc1S(=O)(=O)NCc1ccco1,inactive: -7.06%
6,CCN(CC)S(=O)(=O)c1ccc2c(c1)c(=O)c(C(=O)NCc1ccccc1Cl)cn2C,inactive: -28.5%
7,COc1ccc(Cl)cc1C(=O)NCc1nnnn1-c1ccccc1,inactive: -5.13%
8,O=C(Nc1sc2c(c1C(=O)NCc1ccccc1)CCCC2)c1cc(=O)c2ccccc2o1,inactive: 3.18%
9,COc1cccc(N2CCN(C(=O)Cn3nc(C)n4c(cc5c(OC)cccc54)c3=O)CC2)c1,inactive: 15.9%
10,COC(=O)c1c(NC(=O)COc2ccc(Cl)cc2)sc(C)c1C,inactive: 0.709%
11,COCc1cc(C)nc2c1C(=O)NC(c1ccc(Br)cc1)N2Cc1ccccc1 (stereo not given),inactive: 26.1%
12,COc1cc(Cl)c(C)cc1NC(=O)Cn1c2ncccc2c(=O)n1-c1ccccc1,inactive: 8.91%
13,CCOc1ccccc1C(=O)NCC(c1cccs1)S(=O)(=O)c1ccc(F)c(C)c1 (stereo not given),inactive: 19.5%
14,CCc1ccc(NC(=O)CSc2nc3c(c(=O)[nH]2)CN(Cc2ccc(C)cc2)CC3)cc1,inactive: 10.2%
15,O=C(NCc1ccc(Cl)cc1)C1CCN(c2ncnc3c2nc2n3CCCCC2)CC1,inactive: 3.93%
16,COc1cc(NC(=O)C2=CC(c3ccco3)=NS(=O)(=O)N2C)cc(OC)c1OC,inactive: -1.99%
17,CCCCn1c(=O)c2oc3ccccc3c2n(Cc2ccccc2C)c1=O,inactive: 16.4%
18,CCOC(=O)c1[nH]c2c(c1Cc1ccccc1OC)C(=O)CC(c1ccccc1)C2 (stereo not given),inactive: -17.6%
19,O=C(COc1ccc(F)cc1)Nc1ccccc1C(=O)OCc1cc(=O)n2ccsc2n1,inactive: 4.14%
20,COCCc1nn2c(=O)cc(COC(=O)c3ccccc3C)nc2s1,inactive: -2.54%

row,SMILES,"activity change, negative = cytotoxicity"
1,Cc1ccc(C)c(N2CCN(C(=O)c3ccc4c(=O)n(CCc5ccccc5)c(=O)[nH]c4c3)CC2)c1,inactive: 1.64%
2,O=C(Nc1cc(-c2ccc(Cl)cc2)no1)c1ccc(F)cc1,inactive: -5.06%
3,CCCSCCCNC(=O)CN1C(=O)COc2ccc(S(=O)(=O)N3CCCC3)cc21,inactive: -3.42%
4,Cc1nc(-c2ccccc2)sc1CCNC(=O)C(=O)Nc1ccc(F)c(Cl)c1,inactive: 17.8%
5,NC(=O)c1ccccc1NC(=O)CN1c2ccccc2S(=O)(=O)c2ccccc21,inactive: -8.23%
6,CCOc1ccc(S(=O)(=O)Nc2cccc(OC)c2)c2cccnc12,inactive: -8.04%
7,O=C1CS(=O)(=O)C2(C(=O)N(Cc3ccccc3)c3ccccc32)N1c1ccc(F)c(Cl)c1 (stereo not given),inactive: 7.37%
8,COc1cccc(-n2nnc(-c3nc(-c4cccs4)no3)c2N)c1,inactive: 5.49%
9,COc1ccc(NS(=O)(=O)c2ccc3[nH]c(=O)ccc3c2)cc1OC,inactive: -6.43%
10,COc1ccccc1C(=O)Oc1c(Sc2ccccc2)c(C)nn1-c1ccccc1,inactive: -3.21%
11,COc1ccc(S(=O)(=O)N(CC(=O)Nc2ccccc2Cl)Cc2ccccc2)cc1,inactive: -10.4%
12,Cc1ccc(CCNC(=O)CN2C(=O)COc3ccc(S(=O)(=O)N4CCCCCC4)cc32)cc1,inactive: 4.19%
13,COc1ccc(C(=O)CCC(=O)Nc2ccc(F)cc2F)cc1,inactive: 0.0861%
14,CCN(CC)C(=O)Cn1c(=O)n(Cc2ccc(C(=O)NCCCOC)cc2)c(=O)c2ccccc21,inactive: -0.816%
15,O=C(Nc1ccc(F)cc1F)c1cc(S(=O)(=O)N2CCCCC2)c[nH]1,inactive: -18.2%
16,Cc1ccc(C)c(N2C(=O)N(Cc3cccc(C(F)(F)F)c3)c3ccccc3S2(=O)=O)c1,inactive: 7%
17,NS(=O)(=O)c1ccc(NC(=O)COc2ccc(S(=O)(=O)NC3CCCCC3)cc2)cc1,inactive: 17.5%
18,CCOC(=O)CSc1nc2cc(OC)c(OC)cc2c2nc(-c3ccccc3)nn12,inactive: 1.55%
19,COC(=O)c1sccc1S(=O)(=O)N(CC(=O)NCc1ccc(C)cc1)c1ccc(C)c(C)c1,inactive: -7.33%
20,Cc1cc(NC(=O)c2cc(Cl)ccc2Cl)ccc1-c1cc2ccccc2oc1=O,inactive: -2.45%

row,SMILES,"activity change, negative = cytotoxicity"
1,CCOC(=O)C1=C(C)N=C2SCCC(=O)N2C1c1ccc(OCc2ccccc2)c(OC)c1 (stereo not given),inactive: 12.5%
2,CC(=O)c1c(C)oc2c1cc(NS(=O)(=O)c1c(C)cc(C)cc1C)c1ccccc12,inactive: 7.18%
3,CCN(CC)CCCNC(=O)c1cn(CC(C)C)c(=O)c2c1c1ccccc1n2C,inactive: 3.85%
4,COc1ccc(-c2nnc(SCC(=O)N3CCc4ccccc43)o2)cc1OC,inactive: -3.13%
5,Cc1ccc2nc(-c3ccsc3)c(Nc3ccc(Cl)cc3)n2c1,inactive: -4.83%
6,Cc1cccc(-c2noc(-c3ccccc3OCC(=O)Nc3ccccc3[N+](=O)[O-])n2)c1,inactive: 11.2%
7,Cc1ccn2cc(CNC(=O)c3cccc(C(F)(F)F)c3)nc2c1,inactive: 18.9%
8,COc1ccc(OCC(=O)N(Cc2sccc2C)C2CCS(=O)(=O)C2)cc1 (stereo not given),inactive: -0.155%
9,CC(=O)c1cccc(NC(=O)[C@H]2O[C@@H]3OC(C)(C)O[C@@H]3[C@H]3OC(C)(C)O[C@H]32)c1,inactive: 11.2%
10,COc1ccc(-c2nc3scc(CCNS(=O)(=O)c4ccc(Oc5ccccc5)cc4)n3n2)cc1,inactive: -7.43%
11,CCN(CC)c1ccc(C2C(C(=O)Nc3ccccc3C)=C(C)Nc3ncnn32)cc1 (stereo not given),inactive: -0.845%
12,COC(=O)CCCCCn1c(-c2ccccc2)cn2c3c(=O)n(C)c(=O)n(C)c3nc12,inactive: -6.91%
13,O=C(NCc1ccccc1Cl)c1c2c(nc3ccccc13)C(=O)N(C1CCCCC1)C2,inactive: -27.6%
14,CCN(Cc1ccccc1)Cc1c(O)ccc2c(=O)c(-c3ccc(Cl)cc3)c(C(F)(F)F)oc12,inactive: -0.237%
15,COc1ccc(OC)c(C(=O)CSc2ncc3c(n2)-c2ccccc2N(Cc2ccccc2C)S3(=O)=O)c1,inactive: -19.3%
16,Cc1ccn2c(=O)cc(CSc3nnc(C)s3)nc2c1,inactive: -5.31%
17,Cc1cc2c(cc1NC(=O)c1ccccc1Cl)n(C)c(=O)c(=O)n2C,inactive: 19.9%
18,Cc1cccc(CCn2c(=O)c3ccccc3n(CC(=O)Nc3ccccc3F)c2=O)c1,inactive: 24.7%
19,COCCNC(=O)CCc1c(C)n(C)c2cc(-c3cc(OC)c(OC)c(OC)c3)nn2c1=O,inactive: 18%
20,CC1CCN(S(=O)(=O)c2ccc3nc(NCc4ccccc4)ccc3c2)CC1,inactive: -29.3%
